Screen size: about 71,000 compounds; about 1,800 (2.5%) were called active. Inconclusive means that the source gave no clear call. Such entries were picked first, then a sample of the others. Calls come from the whole dose curve; as a rule, active = well fitted activation curve with a large enough effect in the signal ratio, with a control signal flat (not every such curve was filed as active); inconclusive = small, poorly fitted or top-dose-only effect, or effect the other way, or a change in a side signal; inactive = flat fitted curve, though single readings scatter; the % refers to the signal ratio. Where the call is inconclusive, the potency comes from a doubtful curve fit.
assay: Cell signaling CRE-BLA (Fsk stim); details: CHO CRE-bla reporter (cAMP response element driving beta-lactamase), forskolin EC10, beta-lactamase ratio; activity change, negative = inhibition: at 38.2 µM (top of the series) unless noted; for activity change, negative = inhibition: % of control where 0% means no effect
How it was run: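 CRE-bla CHO cells stimulated with EC10 NKH 477 (water-soluble forskolin) and compound titrations, 3 h at 37C; beta-lactamase read with CCF4 after 2 h at room temperature. Activity from 460/530 nm emission ratio, AC50 values for positive or negative modulation.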
Potency is the fitted concentration of half-maximal effect; tags give direction and shape of the fitted curve.

Structure (SMILES)	activity change, negative = inhibition	Potency
O=C(CN1CCN(Cc2ccccc2Cl)C1=O)N1CCCCCC1	inconclusive: 10%	–
CCC(=O)c1ccc(N2CCCCCC2)c(F)c1	–	inconclusive: 12.6 µM [rising, partial curve]
CCOC(=O)C1CCCN(c2ncnc3c2cnn3-c2cccc(C)c2)C1 (configuration not stated)	inconclusive: 14.7%	–
O=C(CSc1ncn(-c2ccccc2)n1)NCc1ccccc1	inconclusive: -33.2%	–
Cc1nnc(SCCn2c(N3CCCCCC3)nc3c2c(=O)[nH]c(=O)n3C)s1	inconclusive: 18.3%	–
COc1ccc(S(=O)(=O)Nc2c(C)ccc3nsnc23)cc1OC	inconclusive: 16.9%	–
Cn1c(=O)[nH]c(=O)c2c1nc(N(CCO)Cc1ccccc1)n2CCCc1ccccc1	–	inconclusive: 15.8 µM [rising, single point]
O=c1oc2ccccc2c2nccnc12	inactive	–
COc1cc(OC)c(C2=NOC(C(=O)Nc3cc(C)nn3-c3ccccc3)C2)cc1Cl (configuration not stated)	–	inconclusive: 7.94 µM [rising, partial curve]
COc1ccc(C(=O)NCCn2cc(SCC(=O)Nc3cc(C)on3)c3ccccc32)cc1OC	–	inconclusive: 25.1 µM [rising, single point]
CC(C)(CN)SCc1ccccc1	inactive: 0.529% [at 7.6 µM]	–
CCc1ccccc1NC(=O)CSc1ncn[nH]1	–	inconclusive: 1 µM [rising, single point]
CC1CCc2sc3ncnc(N4CCOCC4)c3c2C1 (configuration not stated)	inconclusive: 24.8%	–
CCOc1ccc(NC(=O)c2nccnc2CO)cc1	inactive	–
CCOc1ccc(-c2nnc(SCc3nnc(-c4ccccc4)o3)n2-c2ccccc2F)cc1	inactive	–
CNc1nc(C)c(C#N)c(-c2ccccc2)c1C(C)=O	–	inconclusive: 7.94 µM [rising, partial curve]
CCC(c1nnnn1C(C)(C)C)N1CCN(c2cc(Cl)ccc2C)CC1 (configuration not stated)	inactive	–
CN1C(=O)c2cccc3c(S(=O)(=O)Nc4ccccn4)ccc1c23	–	inconclusive: 12.6 µM [rising, partial curve]
CCOC(=O)C1CCN(S(=O)(=O)c2cccc(-c3csc(C)n3)c2)CC1	inconclusive: 20.2%	–
COc1ccc(Nc2nc3ccccc3c(=O)s2)c(OC)c1	–	inconclusive: 25.1 µM [rising, single point]
CC(=O)c1ccc(Oc2cc(C)nc(-n3nc(C)cc3C)n2)cc1	–	active: 7.94 µM
CCOc1cc(N2CCOCC2)c(OCC)cc1NC(=O)COc1cccc2cccnc12	inconclusive: 2.45%	–
Cc1nc2ccccc2c2oc(C(=O)NCCN3CCN(C)CC3)cc12	–	inconclusive: 12.6 µM [rising, single point]
Cn1c(SCC(=O)N2c3ccccc3Sc3ccccc32)nnc1-c1ccco1	–	inconclusive: 0.2 µM [rising, partial curve]
CC(C)N(C(=O)N1CCC(c2nc(-c3ccncc3)no2)CC1)C(C)C	inactive	–
CC(C)(C)n1ncc2c(=O)n(CC(=O)Nc3ccc4c(c3)OCCO4)cnc21	inconclusive: 18.9%	–

Structure (SMILES)	activity change, negative = inhibition	Potency
CCOC(=O)c1cc2oc(C(c3nnnn3C3CCCCC3)N3CCOCC3)cc2[nH]1 (configuration not stated)	–	inconclusive: 10 µM [rising, single point]
CCN(C(=O)CSc1nc2nc(C)cc(C)n2n1)c1ccccc1	–	inconclusive: 10 µM [rising, single point]
COC(=O)c1sccc1NC(=O)c1ccc2c(c1)OCO2	–	inconclusive: 12.6 µM [rising, single point]
OC1(c2ccc3c(c2)OCO3)CCN(Cc2ccccn2)CC1	inactive	–
Cc1ccc(Cn2ccc(NC(=O)c3cc(-c4ccc(F)cc4)on3)n2)cc1	inconclusive: 15.1%	–
Cc1ccc(Cn2nnc3c(=O)n(CC(=O)OCc4ccccc4)cnc32)cc1	inconclusive: 24.4%	–
COCCOC(=O)C1=C(C)NC(=O)N(C(C)=O)C1c1ccc(Cl)cc1 (configuration not stated)	inconclusive: 8.08%	–
O=C(c1ccncc1)N1CCC2(CC1)CCN(c1ncccn1)CC2	inactive	–
CCOc1ccc2nc(NCCO)[nH]c2c1	inactive	–
O=C(Cc1ccccc1)Nc1nc2ccccc2[nH]1	inactive	–
COc1cccc(-n2nnc3c(=O)n(CC(=O)N4CCCCC4)cnc32)c1	–	inconclusive: 0.0501 µM [rising, partial curve, poor fit]
CC(C)Cn1cc(C(=O)N2CCOCC2)c2c3ccccc3n(C)c2c1=O	inconclusive: 7.49%	–
CCC(Sc1nc2n[nH]c(C)c2c(=N)n1-c1cccc(Cl)c1)C(=O)NCCOC (configuration not stated)	–	active: 12.6 µM
CN1CCN(c2ccccc2NC(=O)c2cccc(OCc3ccccc3)c2)CC1	inconclusive: 12.8%	–
Cc1c(NC(=O)C(C)OC(=O)C(NC(=O)c2ccco2)C(C)C)c(=O)n(-c2ccccc2)n1C (configuration not stated)	inconclusive: -8.2%	–
Cn1c(N2CCCCC2)nc2c1c(=O)[nH]c(=O)n2C	–	inconclusive: 7.94 µM [rising, partial curve]
Cc1ccc(S(=O)(=O)NCCSc2nnnn2-c2cc(C)ccc2C)cc1	–	inconclusive: 3.16 µM [rising, partial curve]
Cc1nc2c(c(=O)n1Cc1ccccc1Cl)c1nc3ccccc3nc1n2Cc1ccco1	inactive	–
COc1ccc(Nc2cc(C)nc3nc(C)nn23)cc1Cl	–	inconclusive: 10 µM [rising, partial curve]
COc1ccc(-n2c(=O)cnc3cnc(N4CCOCC4)nc32)cc1	inconclusive: 19.9%	–
CCc1nc2nc(C)cc(Nc3cccc(C(F)(F)F)c3)n2n1	–	active: 3.98 µM
N=c1c(C(=O)NCc2ccccc2)cc2c(=O)n3ccccc3nc2n1CCCN1CCOCC1	inconclusive: 29.4%	–
CC1CN(S(=O)(=O)c2cccs2)CC(C)O1 (configuration not stated)	inconclusive: 10%	–
COCCn1c(SCc2nc3ccccc3s2)nc2ccccc21	–	inconclusive: 10 µM [rising, partial curve]
O=C(O)c1ccccc1[N+](=O)[O-]	inactive	–
Brc1cc(Br)c2ncnc(N3CCCCC3)c2c1	–	inconclusive: 3.16 µM [rising, partial curve]
